B1: Ala mutant of Phe3 of the FG-1 sequence, peptide-BAP conjugate (peptide)
chain: FVAGPDA
B2: Ala mutant of Phe1 of the FG-1 sequence, peptide-BAP conjugate (peptide)
chain: AVFGPDA
B3: Ala mutant of Pro5 of the FG-1 sequence, peptide-BAP conjugate (peptide)
chain: FVFGADA
B4: FG-1 peptide-conjugated bacterial alkaline phosphatase (BAP) (peptide)
chain: FVFGPDA
B5: Ala mutant of Val2 of the FG-1 sequence, peptide-BAP conjugate (peptide)
chain: FAFGPDA
B6: FG-2 peptide-conjugated bacterial alkaline phosphatase (BAP) (peptide)
chain: LLEPEDW
B7: FG-5 peptide-conjugated bacterial alkaline phosphatase (BAP) (peptide)
chain: LFEPADR

No constants are given. Whether binding was seen depends on the method and setting. Some results given as binding are weak or reduced against the parent protein; the word gives no strength.

In this experiment the target is T1, Scp1 (UniProt Q9GZU7).
T1 sequence: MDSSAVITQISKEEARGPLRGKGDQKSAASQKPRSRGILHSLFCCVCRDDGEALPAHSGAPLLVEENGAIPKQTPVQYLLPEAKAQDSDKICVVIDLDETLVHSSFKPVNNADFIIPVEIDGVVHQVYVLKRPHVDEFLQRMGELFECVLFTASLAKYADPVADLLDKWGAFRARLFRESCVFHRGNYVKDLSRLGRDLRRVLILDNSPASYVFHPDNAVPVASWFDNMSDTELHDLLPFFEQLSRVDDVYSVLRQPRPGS
The experiment can be described thus: solid-phase binding of peptide-BAP chimeras (BAP activity read with pNPP); Scp1 coated on wells; bacterial broth with peptide/BAP chimera, normalized to BAP activity, added; bound chimera measured with pNPP as substrate; only the target purified.
For the molecule B1, the binding entry is given as “no binding”. For B2 the value was “no binding”; for B3, “no binding”; for B4, “binds”. For B5 the value was “no binding”; for B6, “binds weakly”. The value for B7 was “binds weakly”.
